Laboratory results published in the RNAGym collection of RNA variant scans (doi:10.1093/nar/gkz1192).
Read counts are not given, so values of variants with three or more changes are uncertain.

B1: CPEB3 Ribozyme (parent)
chain: UAACAGGGGGCCACAGCAGAAGCGUUCACGUCGCAGCCCCUGUCAGAUUCUGGUGAAUCUGCGAAUUCUGCUGUAUAUCUC

Variants of: B1
Test: self-cleavage, relative activity (ratio to wild type); higher = more cleavage; in vitro, sequencing
In short: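 Libraries of CPEB3 self-cleaving ribozyme mutants came from rounds of error-prone PCR and carried barcodes, which DNA sequencing matched to variants. In vitro transcription used T7 RNA polymerase at 37°C for 5 hours, with a further 15 min in DNase I before EDTA stopped the reaction; the ribozymes cleaved during both steps. The RNA was reverse transcribed with template switching and sequenced on Illumina. Relative activity is the cleaved/total read fraction of a variant divided by that of the unmutated ribozyme, averaged over three batches with at least 5 reads.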

Row | Variant | self-cleavage
1 | UAACAAGGGGCCGCAGCAGAAGCGUUCGCGUCGCGGCCCCUGUCAGAUUCUGGUGAAUCUGCGAAUUCUGCUGUAUAUCUC [G6A A13G A28G A35G] | 0.47
2 | UAACAAGGGGCCGCAGCAGAAGCGUUCGCGUCGCAGCCCCUGUCAGAUUCUGGUGAGUCUGCGAAUUCUGCUGUAUAUCUC [G6A A13G A28G A57G] | 0.09
3 | UAACAAGGGGCCGCAGCAGAAGCGUUCACGUCGCGGCUCCUGUCUGAUUCUGGUGAAUCUGCGAAUUCUGCUGUAUAUCUC [G6A A13G A35G C38U A45U] | 0.23
4 | UAACAAGGGGCCGCAGCAGAAGCGUUCACGUCGCGGCUCCUGUCAGAUUCUGGUGAAUCUGCGAAUUAAGCUGUAUAUCUC [G6A A13G A35G C38U C68A U69A] | 0.07
5 | UAACAAGGGGCCGCAGCAGAAGCGUUCACGUCGCAGCCCCUGUCUGAUUCUGGUGAGUCUGCGAAUUCUGCUGUAUAUCUC [G6A A13G A45U A57G] | 0.23
6 | UAACAAGGGGCCGCAGCAGAAGCGCUCACGUCGCAGCCCCUGUCAGAUUCUGGUGAAUCUGCGAAUUCUGCUGUAUAUCUC [G6A A13G U25C] | 0.37
7 | UAACAAGGGGCCGCAGCAGAAGCGCUCACGUCGCAGCCCCUGUCAGAUUCUGGUGUAUCUGCGAAUCCUGCUGUAUAUCUC [G6A A13G U25C A56U U67C] | 0.07
8 | UAACAAGGGGCCGCAGCAGAAGCGUUCACGUCGCAGCCCCUGACAGAUCCUGGUGAAUCUGCGAAUUCUGCUGUAUAUCUC [G6A A13G U43A U49C] | 0.13
9 | UAACAAGGGGCCGCAGCAGAAGCGUUCACGUCGCAGCCCCUGCCAGAUUCUGGUGAAUCUGCGAAUUCUGCUGUAUAUCUC [G6A A13G U43C] | 0.42
10 | UAACAAGGGGCCGCAGCAGAAGCGUUCACGUCGCAGCCCCUGUCAGAUUCUGGUGAAUCCGCGAAUUCUGCUGUAUAUCUC [G6A A13G U60C] | 0.1
11 | UAACAAGGGGCCGCAGCAGAAGCGUUCACGUCGCAGCCCCUGUCAGAUUCUGGUGAAUCUGCGAAUUCCGCUGUAUAUCUC [G6A A13G U69C] | 0.07
12 | UAACAAGGGGCCUCCGCAGAGGCGUUCUCGUCGCAGCCCCUGUCUGACUCUGGUGAAUCUGCGAAUUCUGCUGUAUAUCUC [G6A A13U A15C A21G A28U A45U U48C] | 0.03
13 | UAACAAGGGGCCUCAGCGGAAGCGUUCACGUCGCAGCCCCGGUCAGAUUCUGGUGAGUCUGCGAAUUCUGCUGUAUAUCUC [G6A A13U A18G U41G A57G] | 0.09
14 | UAACAAGGGGCCUCAGCAGAGGCGUUCACGACGCAGCCCCUGUCAGAUUCUGGUGAAUCUGCGAAUUCUGCUGUAUAUCUC [G6A A13U A21G U31A] | 0.37
15 | UAACAAGGGGCCUCAGCAGAGGCGUUCACGUCGCAGCCCCUGUCAGAUCCUGGUGAAUCUGCGAAUUCUGCUGUAUAUCAC [G6A A13U A21G U49C U80A] | 0.08
16 | UAACAAGGGGCCUCAGCAGAUGCGUUCACGUUGCAGCCCCUGUCAGGUUCUGGUGAAUCUGCGAAUUCUGCUGUAUAUCUC [G6A A13U A21U C32U A47G] | 0.01
17 | UAACAAGGGGCCUCAGCAGAAGCGUUCGCGUCGCAGCCCCUGCCAGAUUCUGGUGAAUCUGCGAGCUCUGCUGUAUAUCUC [G6A A13U A28G U43C A65G U66C] | 0.05

Row | Variant | self-cleavage
18 | UAACAAGGGGCCUCAGCAGAAGCGUUCACGUCGCAGCUCCUGUCAGAUUCUGGUGAAUCUGCGAAUUCUGCUGUAUAUCUC [G6A A13U C38U] | 0.37
19 | UAACAAGGGGCCUCAGCAGAAGCGUUCACGUCGCAGCCCCUGUCAGAUUCUAGUGAGUCUGCGAAUUCUGCUGUAUACCUC [G6A A13U G52A A57G U78C] | 0.54
20 | UAACAAGGGGCCUCAGCAGAAGCGACCACGUCGCAGCCCCUGUCAGAUUCUGGUGAGUCUGCGAAUUCUGCUGUAUAUCUC [G6A A13U U25A U26C A57G] | 0.05
21 | UAACAAGGGGCCUCAGCAGAAGCGUUCACGUCGCAGCCCCAGUCAGAUCCAGGUGAAUCUGCGAAUUCUGCUGUAUAUCUC [G6A A13U U41A U49C U51A] | 0.05
22 | UAACAAGGGGCCUCAGCAGAAGCGUUCACGUCGCAGCCCCUGACAGAUUCUGGAGGAUCUGCGAAUUCUGCUGUAUAUCUC [G6A A13U U43A U54A A56G] | 0.12
23 | UAACAAGGGGCCUCAGCAGAAGCGUUCACGUCGCAGCCCCUGUCAGACUCUGGUGAAUCUGCGAGUUCUGCUGUAUAUCUC [G6A A13U U48C A65G] | 0.15
24 | UAACAAGGGGCCUCAGCAGAAGCGUUCACGUCGCAGCCCCUGUCAGAUGCUGGUGAGUCUGCGAAUUCUGCUGUAUAUCUC [G6A A13U U49G A57G] | 0.07
25 | UAACAAGGGGCCUCAGCAGAAGCGUUCACGUCGCAGCCCCUGUCAGAUUCUGGUGAAUCUGCGAACUCUGCUGUAUAUCUC [G6A A13U U66C] | 0.04
26 | UAACAAGGGGCCACCGCGGAAGCGUUCACGUCGCAGCCCCUGUCAGAUUCUGGUGAAUCUGCGGAUUCUGCUGUAUAUCUC [G6A A15C A18G A64G] | 0.48
27 | UAACAAGGGGCCACCGCAGAAGCGUUCACGUCGCAGCCCCUGUCAGAUUCUGGUGAAUCUGCGAAUUCUGCUGUAUCUCUC [G6A A15C A77C] | 0.33
28 | UAACAAGGGGCCACCGCAGAAGCGUUCACGUCGCAGCCCCUGCCAGAUUCUGGUGAAUCUGCGAAUUCUGCUGUAUAUCUC [G6A A15C U43C] | 0.09
29 | UAACAAGGGGCCACGGCGGAAGCGUUCACGUCGCAGCCCCUGUCGGAUUCUGGUGAAUCUGCGAAUUCCGCUGUUUAUCUC [G6A A15G A18G A45G U69C A75U] | 0.18
30 | UAACAAGGGGCCACGGCAGAGGCGUUCCCGUCGCAGCCCCUGUCAGAUUCUGGUGAAUCUGCGAAUUCUGCUGUAUAUCUC [G6A A15G A21G A28C] | 0.05
31 | UAACAAGGGGCCACGGCAGAAGCGUUCACGUCGCAGCCCCUGUCGGAUUCUGGUGGAUCUGCUAAUUCUGCUGUAUAUCUC [G6A A15G A45G A56G G63U] | 0.27
32 | UAACAAGGGGCCACGGCAGAAGCGUUCACGUCGCAGCCCCUGUCGGAUUCUGGUGAAUCUGCGAACUCUGCUGUAUAUCUC [G6A A15G A45G U66C] | 0.17
33 | UAACAAGGGGCCACGGCAGAAGCGUUCACGUCGCAGCCCCUGUCAGAUUCUGGUGGAUCUGCGAAUUCUGCUGUGUAUCUC [G6A A15G A56G A75G] | 0.14
34 | UAACAAGGGGCCACGGCAGAAGCGUUAGCGUCGCAGCCCCUGUCAGAUUCUGGUGAAUCUGCGGAUUCUGCUGUAUAUCUC [G6A A15G C27A A28G A64G] | 0.09
